{
  "source": "the supplement of paper PMC8728848",
  "binders": {"B1": {"name": "Fc-marm-DC-ASGPR-CRD (protein)", "chain": "ASCPINWVEHQGSCYWFSRSGKTWPEAERYCQLENTHLVVINSREEQNFVQAHLGSAYTWMGLSDPEGVWKWVDGTDYSSGFQNWKPGQPDDWQGHGLGGGEDCAHFHPDGRWNDDVCQRSYHWVCEAGLTQASQDSHT[in this place human IgG1 Fc]"}},
  "experiment_in_all_cases": "glycan array binding signal (z-score within array); higher = stronger binding",
  "settings_in_all_cases": "glycan notation: IUPAC condensed, linker removed",
  "key": {"[1]": {"molecular_target": "Fuc(a1-2)Gal(b1-3)GlcNAc(b1-2)Man(a1-3)[Fuc(a1-2)Gal(b1-3)GlcNAc(b1-2)Man(a1-6)]Man(b1-4)GlcNAc(b1-4)[Fuc(a1-6)]GlcNAc", "method_in_brief": "(§1)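 The binding signal is a Z-score computed within each array. Data were drawn from 3228 arrays in the Consortium for Functional Glycomics database, restricted to those with a known protein sequence. Scores were averaged over arrays of the same protein sequence at different concentrations or buffers, and over linkers, and negative values can be taken as non-binding.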"}, "[2]": {"molecular_target": "Fuc(a1-2)Gal(b1-4)GlcNAc(b1-3)GalNAc", "method_in_brief": "as §1"}, "[3]": {"molecular_target": "Fuc(a1-2)[Gal(a1-3)]Gal(b1-3)GlcNAc(b1-6)GalNAc", "method_in_brief": "as §1"}, "[4]": {"molecular_target": "Fuc(a1-2)[Gal(a1-3)]Gal(b1-4)GlcNAc", "method_in_brief": "as §1"}, "[5]": {"molecular_target": "Fuc(a1-2)[Gal(a1-4)]Gal(b1-4)GlcNAc", "method_in_brief": "as §1"}, "[6]": {"molecular_target": "Fuc(a1-2)[GalNAc(a1-3)]Gal(b1-3)GlcNAc(b1-3)GalNAc", "method_in_brief": "as §1"}, "[7]": {"molecular_target": "Fuc(a1-2)[GalNAc(a1-3)]Gal(b1-4)GlcNAc(b1-3)GalNAc", "method_in_brief": "as §1"}, "[8]": {"molecular_target": "Gal(a1-4)Gal(b1-3)GlcNAc(b1-2)Man(a1-3)[Gal(a1-4)Gal(b1-3)GlcNAc(b1-2)Man(a1-6)]Man(b1-4)GlcNAc(b1-4)GlcNAc", "method_in_brief": "as §1"}, "Gal(b1-3)GlcNAc(b1-2)Man": {"molecular_target": "Gal(b1-3)GlcNAc(b1-2)Man", "method_in_brief": "as §1"}, "[9]": {"molecular_target": "Gal(b1-3)GlcNAc(b1-3)Gal(b1-4)Glc", "method_in_brief": "as §1"}, "[10]": {"molecular_target": "Gal(b1-3)GlcNAc(b1-6)[Gal(b1-3)]GalNAc", "method_in_brief": "as §1"}, "Gal(b1-4)Glc6S": {"molecular_target": "Gal(b1-4)Glc6S", "method_in_brief": "as §1"}, "Gal(b1-4)GlcNAc(b1-2)Man": {"molecular_target": "Gal(b1-4)GlcNAc(b1-2)Man", "method_in_brief": "as §1"}, "[11]": {"molecular_target": "Gal(b1-4)GlcNAc(b1-2)Man(a1-3)[Gal(b1-4)GlcNAc(b1-2)Man(a1-6)]Man(b1-4)GlcNAc(b1-4)GlcNAc", "method_in_brief": "as §1"}, "[12]": {"molecular_target": "Gal(b1-4)GlcNAc(b1-2)Man(a1-3)[Gal(b1-4)GlcNAc(b1-2)Man(a1-6)][Gal(b1-4)GlcNAc(b1-4)]Man(b1-4)GlcNAc(b1-4)[Fuc(a1-6)]GlcNAc", "method_in_brief": "as §1"}, "[13]": {"molecular_target": "Gal(b1-4)GlcNAc(b1-2)[Gal(b1-4)GlcNAc(b1-4)]Man(a1-3)[GlcNAc(b1-4)][Gal(b1-4)GlcNAc(b1-2)[Gal(b1-4)GlcNAc(b1-6)]Man(a1-6)]Man(b1-4)GlcNAc(b1-4)GlcNAc", "method_in_brief": "as §1"}, "[14]": {"molecular_target": "Gal(b1-4)GlcNAc(b1-3)Gal(b1-4)GlcNAc(b1-2)Man(a1-3)[Gal(b1-4)GlcNAc(b1-3)Gal(b1-4)GlcNAc(b1-2)Man(a1-6)]Man(b1-4)GlcNAc(b1-4)[Fuc(a1-6)]GlcNAc", "method_in_brief": "as §1"}, "Gal(b1-4)GlcNAc6P": {"molecular_target": "Gal(b1-4)GlcNAc6P", "method_in_brief": "as §1"}, "Gal6S(b1-3)GlcNAc6S": {"molecular_target": "Gal6S(b1-3)GlcNAc6S", "method_in_brief": "as §1"}, "GalNAc(a1-3)Gal": {"molecular_target": "GalNAc(a1-3)Gal", "method_in_brief": "as §1"}, "[15]": {"molecular_target": "GalNAc(a1-3)GalNAc(b1-3)Gal(a1-4)Gal(b1-4)GlcNAc", "method_in_brief": "as §1"}, "[16]": {"molecular_target": "GalNAc(b1-3)Gal(a1-4)Gal(b1-4)GlcNAc(b1-3)Gal(b1-4)Glc", "method_in_brief": "as §1"}, "[17]": {"molecular_target": "GalNAc(b1-4)GlcNAc(b1-2)Man", "method_in_brief": "as §1"}, "GalNAc(b1-4)GlcNAc6S": {"molecular_target": "GalNAc(b1-4)GlcNAc6S", "method_in_brief": "as §1"}, "GalNAc(b1-6)GalNAc": {"molecular_target": "GalNAc(b1-6)GalNAc", "method_in_brief": "as §1"}, "GalNAc6S(b1-4)GlcNAc": {"molecular_target": "GalNAc6S(b1-4)GlcNAc", "method_in_brief": "as §1"}, "[18]": {"molecular_target": "GlcA3S(b1-3)Gal(b1-4)GlcNAc(b1-2)Man", "method_in_brief": "as §1"}, "[19]": {"molecular_target": "GlcA3S(b1-3)Gal(b1-4)GlcNAc(b1-3)Gal(b1-4)Glc", "method_in_brief": "as §1"}, "[20]": {"molecular_target": "GlcNAc(b1-2)[GlcNAc(b1-6)]Man(a1-6)[GlcNAc(b1-2)Man(a1-3)]Man(b1-4)GlcNAc(b1-4)GlcNAc", "method_in_brief": "as §1"}, "GlcNAc(b1-6)GalNAc": {"molecular_target": "GlcNAc(b1-6)GalNAc", "method_in_brief": "as §1"}, "Kdn(a2-3)Gal(b1-3)GlcNAc": {"molecular_target": "Kdn(a2-3)Gal(b1-3)GlcNAc", "method_in_brief": "as §1"}, "[21]": {"molecular_target": "Man(a1-3)[Man(a1-6)]Man(a1-6)[Man(a1-3)]Man(b1-4)GlcNAc(b1-4)GlcNAc", "method_in_brief": "as §1"}, "[22]": {"molecular_target": "Neu5Ac(a2-3)Gal(b1-3)GlcNAc", "method_in_brief": "as §1"}, "[23]": {"molecular_target": "Neu5Ac(a2-3)Gal(b1-4)GlcNAc(b1-2)Man", "method_in_brief": "as §1"}, "[24]": {"molecular_target": "Neu5Ac(a2-3)Gal(b1-4)GlcNAc(b1-2)[Neu5Ac(a2-3)Gal(b1-4)GlcNAc(b1-4)]Man(a1-3)[GlcNAc(b1-4)][Neu5Ac(a2-3)Gal(b1-4)GlcNAc(b1-4)Man(a1-6)]Man(b1-4)GlcNAc(b1-4)GlcNAc", "method_in_brief": "as §1"}, "[25]": {"molecular_target": "Neu5Ac(a2-3)Gal(b1-4)GlcNAc(b1-3)Gal(b1-4)GlcNAc", "method_in_brief": "as §1"}, "[26]": {"molecular_target": "Neu5Ac(a2-3)Gal(b1-4)GlcNAc(b1-3)Gal(b1-4)GlcNAc(b1-3)GalNAc", "method_in_brief": "as §1"}, "[27]": {"molecular_target": "Neu5Ac(a2-3)Gal(b1-4)[Fuc(a1-3)]GlcNAc(b1-3)Gal(b1-4)GlcNAc", "method_in_brief": "as §1"}, "[28]": {"molecular_target": "Neu5Ac(a2-3)[GalNAc(b1-4)]Gal(b1-4)Glc", "method_in_brief": "as §1"}, "[29]": {"molecular_target": "Neu5Ac(a2-3)[GalNAc(b1-4)]Gal(b1-4)GlcNAc", "method_in_brief": "as §1"}, "[30]": {"molecular_target": "Neu5Ac(a2-6)Gal(b1-4)GlcNAc(b1-2)[Neu5Ac(a2-6)Gal(b1-4)GlcNAc(b1-4)]Man(a1-3)[GlcNAc(b1-4)][Neu5Ac(a2-6)Gal(b1-4)GlcNAc(b1-4)Man(a1-6)]Man(b1-4)GlcNAc(b1-4)GlcNAc", "method_in_brief": "as §1"}, "[31]": {"molecular_target": "Neu5Ac(a2-6)Gal(b1-4)GlcNAc(b1-6)[Gal(b1-3)GlcNAc(b1-3)]Gal(b1-4)Glc", "method_in_brief": "as §1"}, "Neu5Gc(a2-6)GalNAc": {"molecular_target": "Neu5Gc(a2-6)GalNAc", "method_in_brief": "as §1"}},
  "note": "This is one part of a sample in which the strongest signals are shown more often than they occur.",
  "data": [
    {"binder": "B1", "values": [
      {"measurement": "glycan array binding signal (z-score)", "setting": "[1]", "value": -0.052},
      {"measurement": "glycan array binding signal (z-score)", "setting": "[2]", "value": -0.429},
      {"measurement": "glycan array binding signal (z-score)", "setting": "[3]", "value": 2.9},
      {"measurement": "glycan array binding signal (z-score)", "setting": "[4]", "value": -0.512},
      {"measurement": "glycan array binding signal (z-score)", "setting": "[5]", "value": -0.476},
      {"measurement": "glycan array binding signal (z-score)", "setting": "[6]", "value": 2.82},
      {"measurement": "glycan array binding signal (z-score)", "setting": "[7]", "value": 3.41},
      {"measurement": "glycan array binding signal (z-score)", "setting": "[8]", "value": -0.248},
      {"measurement": "glycan array binding signal (z-score)", "setting": "Gal(b1-3)GlcNAc(b1-2)Man", "value": -0.467},
      {"measurement": "glycan array binding signal (z-score)", "setting": "[9]", "value": -0.482},
      {"measurement": "glycan array binding signal (z-score)", "setting": "[10]", "value": 1.3},
      {"measurement": "glycan array binding signal (z-score)", "setting": "Gal(b1-4)Glc6S", "value": -0.505},
      {"measurement": "glycan array binding signal (z-score)", "setting": "Gal(b1-4)GlcNAc(b1-2)Man", "value": 2.97},
      {"measurement": "glycan array binding signal (z-score)", "setting": "[11]", "value": -0.443},
      {"measurement": "glycan array binding signal (z-score)", "setting": "[12]", "value": -0.444},
      {"measurement": "glycan array binding signal (z-score)", "setting": "[13]", "value": -0.495},
      {"measurement": "glycan array binding signal (z-score)", "setting": "[14]", "value": -0.353},
      {"measurement": "glycan array binding signal (z-score)", "setting": "Gal(b1-4)GlcNAc6P", "value": -0.53},
      {"measurement": "glycan array binding signal (z-score)", "setting": "Gal6S(b1-3)GlcNAc6S", "value": -0.458},
      {"measurement": "glycan array binding signal (z-score)", "setting": "GalNAc(a1-3)Gal", "value": 2.87},
      {"measurement": "glycan array binding signal (z-score)", "setting": "[15]", "value": 2.16},
      {"measurement": "glycan array binding signal (z-score)", "setting": "[16]", "value": 2.68},
      {"measurement": "glycan array binding signal (z-score)", "setting": "[17]", "value": 2.67},
      {"measurement": "glycan array binding signal (z-score)", "setting": "GalNAc(b1-4)GlcNAc6S", "value": 3.13},
      {"measurement": "glycan array binding signal (z-score)", "setting": "GalNAc(b1-6)GalNAc", "value": -0.528},
      {"measurement": "glycan array binding signal (z-score)", "setting": "GalNAc6S(b1-4)GlcNAc", "value": 2.66},
      {"measurement": "glycan array binding signal (z-score)", "setting": "[18]", "value": -0.539},
      {"measurement": "glycan array binding signal (z-score)", "setting": "[19]", "value": -0.485},
      {"measurement": "glycan array binding signal (z-score)", "setting": "[20]", "value": -0.392},
      {"measurement": "glycan array binding signal (z-score)", "setting": "GlcNAc(b1-6)GalNAc", "value": 2.85},
      {"measurement": "glycan array binding signal (z-score)", "setting": "Kdn(a2-3)Gal(b1-3)GlcNAc", "value": -0.53},
      {"measurement": "glycan array binding signal (z-score)", "setting": "[21]", "value": -0.533},
      {"measurement": "glycan array binding signal (z-score)", "setting": "[22]", "value": -0.515},
      {"measurement": "glycan array binding signal (z-score)", "setting": "[23]", "value": 0.495},
      {"measurement": "glycan array binding signal (z-score)", "setting": "[24]", "value": -0.446},
      {"measurement": "glycan array binding signal (z-score)", "setting": "[25]", "value": -0.53},
      {"measurement": "glycan array binding signal (z-score)", "setting": "[26]", "value": -0.48},
      {"measurement": "glycan array binding signal (z-score)", "setting": "[27]", "value": -0.359},
      {"measurement": "glycan array binding signal (z-score)", "setting": "[28]", "value": 2.31},
      {"measurement": "glycan array binding signal (z-score)", "setting": "[29]", "value": 2.07},
      {"measurement": "glycan array binding signal (z-score)", "setting": "[30]", "value": -0.357},
      {"measurement": "glycan array binding signal (z-score)", "setting": "[31]", "value": -0.5},
      {"measurement": "glycan array binding signal (z-score)", "setting": "Neu5Gc(a2-6)GalNAc", "value": 2.78}
    ]}
  ]
}
